# Assay results from a collection of fitness landscapes (doi:10.1126/science.1257360).
# This is one part of the list.
# B1: PhoQ; a variant is named by its letters at X, in order, P23837 (parent)
# chain: MKKLLRLFFPLSLRVRFLLATAAVVLVLSLAYGMVALIGYSVSFDKTTFRLLRGESNLFYTLAKWENNKLHVELPENIDKQSPTMTLIYDENGQLLWAQRDVPWLMKMIQPDWLKSNGFHEIEADVNDTSLLLSGDHSIQQQLQEVREDDDDAEMTHSVAVNVYPATSRMPKLTIVVVDTIPVELKSSYMVWSWFIYVLSANLLLVIPLLWVAAWWSLRPIEALAKEVRELEEHNRELLNPATTRELTSLVRNLNRLLKSERERYDKYRTTLTDLTHSLKTPLXXLQXXLRSLRSEKMSVSDAEPVMLEQISRISQQIGYYLHRASMRGGTLLSRELHPVAPLLDNLTSALNKVYQRKGVNISLDISPEISFVGEQNDFVEVMGNVLDNACKYCLEFVEISARQTDEHLYIVVEDDGPGIPLSKREVIFDRGQRVDTLRPGQGVGLAVAREITEQYEGKIVAGESMLGGARMEVIFGRQHSAPKDE
# Variants of: B1
# Experiment: enrichment ratio after two sorts for PhoP signalling (ratio (wild type AVST 3.29)); higher = more functional
# Conditions: with PhoP (E. coli)
row,Variant,enrichment ratio
1,DWGT,≤ 0.25
2,HQCS,≤ 0.25
3,RAMP,≤ 0.25
4,YSRA,≤ 0.25
5,VAMQ,≤ 0.25
6,IYDA,≤ 0.25
7,GTPL,≤ 0.25
8,KNYT,≤ 0.25
9,FGLH,6.84
10,LQCK,≤ 0.25
11,LTKQ,≤ 0.25
12,EARC,≤ 0.25
13,LQIS,≤ 0.25
14,GNIE,≤ 0.25
15,HCKL,2.13
16,NWWT,≤ 0.25
17,DTCI,≤ 0.25
18,TDDK,≤ 0.25
19,AEHY,≤ 0.25
20,PWRC,≤ 0.25
21,KMAI,≤ 0.25
22,TQFN,14.2
23,YLCN,0.42
24,DCFD,≤ 0.25

row,Variant,enrichment ratio
1,KVTI,≤ 0.25
2,HVLR,≤ 0.25
3,RHAR,≤ 0.25
4,DCYN,≤ 0.25
5,LFKN,≤ 0.25
6,LLLS,≤ 0.25
7,YPAT,≤ 0.25
8,RDCD,≤ 0.25
9,RNLA,≤ 0.25
10,PWWL,≤ 0.25
11,MHVC,≤ 0.25
12,ARHC,≤ 0.25
13,HRIF,≤ 0.25
14,HGGY,≤ 0.25
15,KTRW,≤ 0.25
16,TRLI,7.56
17,FSDA,≤ 0.25
18,RFNQ,≤ 0.25
19,LWQS,≤ 0.25
20,RTDK,≤ 0.25
21,SEEM,10.9
22,ECFV,≤ 0.25
23,FMMD,≤ 0.25
24,TGML,12.2

row,Variant,enrichment ratio
1,IWPM,≤ 0.25
2,KPYR,0.737
3,RTHL,≤ 0.25
4,APWS,≤ 0.25
5,RSSW,≤ 0.25
6,GMLA,≤ 0.25
7,YIHP,≤ 0.25
8,NELV,2.93
9,PTEQ,≤ 0.25
10,VIQI,≤ 0.25
11,ESPR,≤ 0.25
12,CFVL,≤ 0.25
13,PPLV,≤ 0.25
14,KLAI,≤ 0.25
15,FWGA,≤ 0.25
16,PPMP,≤ 0.25
17,MMVA,≤ 0.25
18,YMEK,≤ 0.25
19,MDFA,≤ 0.25
20,FNQQ,≤ 0.25
21,MSHE,≤ 0.25
22,GGGA,≤ 0.25
23,LIGI,≤ 0.25
24,RAMW,≤ 0.25

row,Variant,enrichment ratio
1,QSCH,≤ 0.25
2,YRHA,≤ 0.25
3,SDKW,≤ 0.25
4,QCIK,≤ 0.25
5,WMWK,≤ 0.25
6,WNDI,≤ 0.25
7,WKHA,≤ 0.25
8,VVPF,≤ 0.25
9,VYIF,≤ 0.25
10,YKRN,≤ 0.25
11,LHVN,≤ 0.25
12,IPKQ,≤ 0.25
13,TEYW,≤ 0.25
14,QQTW,≤ 0.25
15,EENY,≤ 0.25
16,NLVS,≤ 0.25
17,ADSL,≤ 0.25
18,LSVA,≤ 0.25
19,THTM,8.22
20,QLAA,≤ 0.25
21,FTSI,≤ 0.25
22,TMAE,6.39
23,HMLG,≤ 0.25
24,NHYI,≤ 0.25

row,Variant,enrichment ratio
1,IPQN,≤ 0.25
2,NYLD,≤ 0.25
3,ILNP,≤ 0.25
4,WYYN,≤ 0.25
5,HRIG,≤ 0.25
6,AADF,≤ 0.25
7,KSLV,≤ 0.25
8,YIMF,≤ 0.25
9,YDYQ,≤ 0.25
10,YDTN,≤ 0.25
11,HATK,≤ 0.25
12,MSEM,≤ 0.25
13,NHCA,≤ 0.25
14,HQCK,≤ 0.25
15,DWGD,≤ 0.25
16,THDR,≤ 0.25
17,FDHF,≤ 0.25
18,SGWW,≤ 0.25
19,ALLE,8.01
20,TMQS,14.3
21,NIWL,≤ 0.25
22,MQGD,≤ 0.25
23,QDFQ,≤ 0.25
24,HSYY,≤ 0.25

row,Variant,enrichment ratio
1,GPGF,≤ 0.25
2,WGGG,≤ 0.25
3,RQTE,≤ 0.25
4,PAIE,≤ 0.25
5,LYFN,≤ 0.25
6,IQTG,≤ 0.25
7,LDWV,≤ 0.25
8,FWYK,≤ 0.25
9,PPYY,≤ 0.25
10,VYSK,≤ 0.25
11,FYKA,≤ 0.25
12,NVYL,≤ 0.25
13,LNHS,≤ 0.25
14,TNYI,1.36
15,GRKD,≤ 0.25
16,DDVM,≤ 0.25
17,RHTS,≤ 0.25
18,PNPT,≤ 0.25
19,GMPD,≤ 0.25
20,LCQF,≤ 0.25
21,KQYK,≤ 0.25
22,VSAM,7.08
23,IKVL,≤ 0.25
24,MQIF,≤ 0.25

row,Variant,enrichment ratio
1,TPNT,≤ 0.25
2,PKPK,≤ 0.25
3,GTIV,2.97
4,HSWQ,≤ 0.25
5,ILVE,≤ 0.25
6,HAEK,≤ 0.25
7,GVLK,8.59
8,EALI,1.98
9,GSHM,0.822
10,RDPQ,≤ 0.25
11,SHEE,≤ 0.25
12,GIKR,≤ 0.25
13,SNVP,≤ 0.25
14,VQHP,≤ 0.25
15,IDIM,≤ 0.25
16,ENLV,≤ 0.25
17,ALYF,≤ 0.25
18,IQKC,≤ 0.25
19,HMCC,≤ 0.25
20,MKYR,≤ 0.25
21,DPMG,≤ 0.25
22,QFQD,≤ 0.25
23,FDDS,≤ 0.25
24,QVLC,≤ 0.25

row,Variant,enrichment ratio
1,GKVA,≤ 0.25
2,IDEF,≤ 0.25
3,SKWE,≤ 0.25
4,LICM,≤ 0.25
5,PMGK,≤ 0.25
6,LCNH,≤ 0.25
7,IHFP,≤ 0.25
8,WIFT,≤ 0.25
9,LKAF,≤ 0.25
10,FTTD,≤ 0.25
11,FFKT,≤ 0.25
12,LGLV,6.95
13,KTNP,≤ 0.25
14,NCGA,≤ 0.25
15,HWHW,≤ 0.25
16,YPPG,≤ 0.25
17,PPPY,≤ 0.25
18,IWVM,≤ 0.25
19,RLSS,≤ 0.25
20,DFYA,≤ 0.25
21,SHAM,8.88
22,SGGM,8.79
23,RQPL,≤ 0.25
24,IEVE,≤ 0.25

row,Variant,enrichment ratio
1,VWVG,≤ 0.25
2,ETGT,≤ 0.25
3,VQKH,≤ 0.25
4,YQRQ,≤ 0.25
5,FPFT,≤ 0.25
6,FSMY,1.09
7,TVEI,≤ 0.25
8,ATGY,≤ 0.25
9,LDSV,≤ 0.25
10,NKNQ,≤ 0.25
11,PRFY,≤ 0.25
12,VGWY,≤ 0.25
13,SKNI,≤ 0.25
14,APTK,≤ 0.25
15,AESH,1.31
16,KYMP,≤ 0.25
17,PFNF,≤ 0.25
18,CSTY,≤ 0.25
19,FPTI,≤ 0.25
20,GVIP,≤ 0.25
21,LDDK,≤ 0.25
22,RCQS,≤ 0.25
23,TDWH,3.25
24,KVRW,≤ 0.25

row,Variant,enrichment ratio
1,ADSN,≤ 0.25
2,DSCD,≤ 0.25
3,SYPL,≤ 0.25
4,NSEW,≤ 0.25
5,DFMR,≤ 0.25
6,DNCL,≤ 0.25
7,GFAQ,≤ 0.25
8,DDNK,≤ 0.25
9,NHCW,≤ 0.25
10,NWYE,≤ 0.25
11,IYNI,≤ 0.25
12,GRLG,≤ 0.25
13,HWCR,≤ 0.25
14,AGPF,≤ 0.25
15,GKWD,≤ 0.25
16,SEVG,25.6
17,AFIH,≤ 0.25
18,FEPG,≤ 0.25
19,LAGI,≤ 0.25
20,ERET,≤ 0.25
21,PQIH,≤ 0.25
22,ERFD,≤ 0.25
23,HNSW,≤ 0.25
24,AHDV,≤ 0.25

row,Variant,enrichment ratio
1,TMDI,≤ 0.25
2,HGVP,≤ 0.25
3,NIMN,≤ 0.25
4,KVHY,≤ 0.25
5,PFHQ,≤ 0.25
6,PKTP,≤ 0.25
7,TPGV,≤ 0.25
8,DVGA,≤ 0.25
9,KELA,≤ 0.25
10,VTKD,≤ 0.25
11,KMER,≤ 0.25
12,KSCK,≤ 0.25
13,VAVD,≤ 0.25
14,WYHS,≤ 0.25
15,TIQM,48.5
16,KDFT,≤ 0.25
17,WLLP,≤ 0.25
18,RWNM,≤ 0.25
19,PTKI,≤ 0.25
20,WMTW,≤ 0.25
21,LRDK,≤ 0.25
22,EHTC,≤ 0.25
23,YEFD,≤ 0.25
24,NMIH,≤ 0.25

row,Variant,enrichment ratio
1,GWTV,≤ 0.25
2,DRFQ,≤ 0.25
3,EYMV,≤ 0.25
4,TCDQ,≤ 0.25
5,RVCI,≤ 0.25
6,FVHR,≤ 0.25
7,KSHN,≤ 0.25
8,KHVY,≤ 0.25
9,ICDP,≤ 0.25
10,SFPV,≤ 0.25
11,TSKA,≤ 0.25
12,WTLS,≤ 0.25
13,FYPP,≤ 0.25
14,LDAI,≤ 0.25
15,KLDQ,≤ 0.25
16,PHQW,≤ 0.25
17,KQYM,≤ 0.25
18,FAAY,≤ 0.25
19,TSIH,≤ 0.25
20,HDPI,≤ 0.25
21,EQCY,≤ 0.25
22,WMPM,≤ 0.25
23,YLMW,≤ 0.25
24,SHFD,≤ 0.25

row,Variant,enrichment ratio
1,FYPW,≤ 0.25
2,AMPF,≤ 0.25
3,FHID,≤ 0.25
4,PWSE,≤ 0.25
5,ICTY,≤ 0.25
6,WQHY,≤ 0.25
7,HDQF,≤ 0.25
8,QGVK,≤ 0.25
9,NLFR,≤ 0.25
10,TSKF,≤ 0.25
11,RWHP,≤ 0.25
12,TMEQ,≤ 0.25
13,FEME,≤ 0.25
14,FNYT,≤ 0.25
15,TERG,≤ 0.25
16,IWMC,≤ 0.25
17,SHPN,≤ 0.25
18,HILN,≤ 0.25
